# Reference: PubChem BioAssay AID651820 (National Center for Advancing Translational Sciences (NCATS), 2012)
# “And” between values parts separate entries of the source, which are not always exact repeats. Equal values may be shown once. The whole screen tested about 340,000 compounds, of which about 12,000 (3.5%) were called active. The shares of active, inactive and inconclusive entries below differ from those in the screen. Calls come from the whole dose curve; as a rule, active = well fitted inhibition curve with a large enough effect; inconclusive = small, poorly fitted or top-dose-only effect, or another doubt; inactive = no such curve, though single readings can be large or run the other way. A potency beside an inconclusive call is a rough fit, not a confirmed value.
# Assay: qHTS Assay for Inhibitors of Hepatitis C Virus (HCV)
# Details: Huh7.5.1 HCVcc-Cre (HCVcc is cell-culture hepatitis C virus) infection, luciferase reporter, 44 h; activity change, negative = inhibition: at 41.8 µM (top of the series) unless noted
# Summary of the method: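 Luciferase read-out (15 sec integration) after a 15 min room-temperature substrate step quantifies HCVcc-Cre infection. Cells, 1,000 per well, had compound added 4 h post-plating, then virus at ~0.5 moi, and were cultured 44 h.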
# % is set by controls: 0 for no effect and ±100 for the full control effect; potency is the fitted concentration of half-maximal effect; tags give direction and shape of the fitted curve.
Structure (SMILES),Potency,"activity change, negative = inhibition"
CCOc1ccc(OCC)c(NC(=O)Nc2ccc3c(c2)N(C)C(=O)CS3)c1,"inconclusive: 10 µM [inhibitor, partial curve]",–
CC(=O)N1CCCc2cc(S(=O)(=O)Nc3ccccc3C)ccc21,–,inactive: -0.96%
Cc1cc(=O)n2c(n1)SCOC2,–,inactive: 3.64%
COc1ccc(CNCc2ccc(OC)c3ccccc23)cc1,–,inactive: 15.1%
Cc1ccc(NC(=O)Cn2nnc(C(=O)NCc3cccs3)c2N)cc1Cl,–,inactive: 0.698%
CN(C)c1ccc(Cc2cc3c(O)ccc(O)c3cc(Cc3ccc(N(C)C)cc3)c2=O)cc1,active: 11.2 µM,–
Cc1cccc2c(=O)n3c(nc12)CCCCC3,"inconclusive: 10 µM [inhibitor, partial curve, poor fit]",–
CC1CCCN(CCC(=O)Nc2ccc3c(c2)CCC3)C1 (stereo unspecified),"inconclusive: 8.91 µM [inhibitor, partial curve]",–
CN1C(=O)CSc2ccc(NC(=O)N3CCC(N4CCCCC4)CC3)cc21,–,inactive: -16.7%
C=CCNc1nc(Nc2ccccc2F)nc(OCC)n1,"inconclusive: 15.8 µM [inhibitor, partial curve]",–
COc1ccc(N2CCN(C(=S)NCCc3ccccc3)CC2)cc1,–,inactive: -16.3%
CCC(C)NC(=O)c1c(N)n(Cc2ccc3c(c2)OCO3)c2nc3ccccc3nc12 (stereo unspecified),"inconclusive: 31.6 µM [inhibitor, single point]",–
Cc1cc(C(=O)NCc2ccccc2)c(=O)[nH]c1C,–,inactive: -15.2%
Cc1ccc2cccc(Oc3ncnc4scc(-c5ccc(Cl)cc5)c34)c2n1,–,inactive: -20.1%
CCOc1cccc(-c2nnc3sc(-c4cc(OC)c(OC)c(OC)c4)nn23)c1,"inconclusive: 31.6 µM [inhibitor, single point]",–
CCOc1cc(CNn2cn[nH]c2=S)cc(Cl)c1OCc1ccccc1F,"inconclusive: 31.6 µM [inhibitor, single point]",–
CCOC(=O)Nc1ccc2c(c1)N(C(=O)CN1CCN(C)CC1)c1ccccc1S2,"inconclusive: 31.6 µM [inhibitor, single point] and inconclusive: 22.4 µM [inhibitor, single point]",–
O=C(CSc1ncccc1-c1nc2ccccc2[nH]1)NCc1ccco1,–,inactive: 17.2%
COc1ccc(CNCCC(c2ccc(OC(C)C)cc2)c2ccccc2OC)cc1OC (stereo unspecified),active: 12.6 µM,–
N#CC(c1ccc(Cl)nn1)c1ccc(Cl)cc1Cl (stereo unspecified),active: 11.2 µM,–
COc1ccc(C(c2nnnn2Cc2ccccc2)N2CCN(c3nc4ccccc4s3)CC2)cc1 (stereo unspecified),"inconclusive: 31.6 µM [inhibitor, single point]",–
CC(C)NS(=O)(=O)c1ccc(CCC(=O)O)cc1,"inconclusive: 3.55 µM [inhibitor, single point]",–
COc1ccc(N=Nc2ccc(O)c3ncccc23)cc1,"inconclusive: 31.6 µM [inhibitor, single point]",–
COc1ccccc1CNC(=O)COC(=O)COc1ccccc1F,–,inactive: -1.05%
Cc1ccc(C)c(NC(=O)CCc2c(C)nn(-c3ccc(N4CCCCC4)nn3)c2C)c1,"inconclusive: 3.16 µM [inhibitor, partial curve]",–
CCN(CC)S(=O)(=O)c1cc(NC(=O)c2ccc3c(c2)NC(=O)C(C)S3)ccc1C (stereo unspecified),active: 3.98 µM,–

Structure (SMILES),Potency,"activity change, negative = inhibition"
CCOC(=O)c1cc(-c2ccncc2)nc2c1c(C)nn2-c1ccccn1,active: 7.94 µM,–
O=C(Nc1ccc(Cl)cc1C(=O)Nc1ccccn1)c1ccco1,"inconclusive: 31.6 µM [inhibitor, single point]",–
COc1ccccc1CNC(=O)CN1C(=O)C(C)N(c2ccc(C)cc2)C1=O (stereo unspecified),"inconclusive: 3.16 µM [inhibitor, single point]",–
CC(=O)Nc1nc2ccccc2n1Cc1ccc(Cl)cc1,–,inactive: -17.5%
Cc1cccc(OCCOCCN2CCNCC2)c1C,"inconclusive: 11.2 µM [inhibitor, partial curve, poor fit]",–
Cc1ccc(Oc2c(C(N)=O)cc([N+](=O)[O-])cc2[N+](=O)[O-])cc1,active: 3.55 µM,–
COc1ccccc1NCc1cc(=O)oc2c(C)c(O)ccc12,"inconclusive: 11.2 µM [inhibitor, partial curve]",–
CCOC(=O)C1Nc2ccc(C(F)(F)F)cc2C2C=CCC12 (stereo unspecified),"inconclusive: 2.82 µM [inhibitor, single point]",–
CCn1c(SCC(=O)NNC(=O)c2ccc(OC)cc2)nnc1-c1cccnc1,–,inactive: 30.6%
O=C(O)c1cc(NN=Nc2ccc(Br)cc2)cc([N+](=O)[O-])c1,–,inactive: 4.99%
C=CC[n+]1ccc(/C=C2\C=Cc3cc(C)ccc3N2CC)c2ccccc21,active: 2.51 µM,–
C=C(CN(C)C)C(=O)c1ccc(C)cc1C,"inconclusive: 14.1 µM [inhibitor, single point]",–
O=C(Nc1sc2c(c1C(=O)O)CCC2)C(=O)N1CCOCC1,"inconclusive: 22.4 µM [inhibitor, single point]",–
COc1ccc(-[n+]2c(-c3ccccc3)cc(-c3ccc(C)cc3)cc2-c2ccccc2)cc1,"inconclusive: 12.6 µM [inhibitor, partial curve]",–
COc1ccc(CN(C)Cc2ccccc2)c(OC)c1OC,–,inactive: 23.6%
NS(=O)(=O)c1ccc(CCNC(=O)CSc2ccc3ccccc3c2)cc1,"inconclusive: 14.1 µM [inhibitor, single point]",–
O=C(Nc1ccc(N2CCCCC2)cc1)C1CCCN1S(=O)(=O)c1ccc(F)cc1 (stereo unspecified),–,inactive: -23%
COc1ccccc1NC(=O)c1ccccc1NC(=O)c1ccccn1,–,inactive: 0.477%
O=C(Cc1sc(-c2ccccc2)nc1-c1ccccc1)Nc1ccc(Cl)cc1,–,inactive: -1.8%
CCc1nnc(NC(=O)c2cc(Cl)ccn2)s1,–,inactive: -16%
CC(C)c1ccc(NC2CCCN(C(=O)CC3CCCC3)C2)cc1 (stereo unspecified),–,inactive: -29.5%
COc1ccccc1NC(=O)c1sc2nc(N3CCOCC3)c3c(c2c1N)CCCC3,"inconclusive: 4.47 µM [inhibitor, partial curve]",–
O=C(NC(=S)NNC(=O)c1cnccn1)c1ccc(Cl)cc1,"inconclusive: 25.1 µM [inhibitor, single point]",–
O=C1C(=O)c2ccc(-c3ccccc3)cc2-c2ccccc21,active: 4.47 µM,–
CC(=O)N1CCC2(CC1)C/C(=N\NC(=S)Nc1ccccc1F)c1cc(O)ccc1O2,"inconclusive: 10 µM [inhibitor, partial curve]",–
O=C1C(CO)C(CO)C(CO)C1CO (stereo unspecified),–,inactive: -3.26%

Structure (SMILES),Potency,"activity change, negative = inhibition"
CCOC(=O)C1=CN(Cc2cccc(F)c2)S(=O)(=O)N(CC)C1c1ccccc1 (stereo unspecified),active: 0.562 µM,–
CCCCN(CCCC)CC(O)CN(c1cc([N+](=O)[O-])ccc1OC)S(=O)(=O)c1ccccc1 (stereo unspecified),"inconclusive: 25.1 µM [inhibitor, single point]",–
NC(=S)N/N=C/c1cccc(Br)c1,"inconclusive: 31.6 µM [inhibitor, single point]",–
CC(O/N=C/c1ccccc1OC(F)F)C(=O)Nc1cccc(S(=O)(=O)N2CCOCC2)c1 (stereo unspecified),"inconclusive: 7.08 µM [inhibitor, partial curve]",–
COc1ccc(CCN(C)C(=O)C(CCSC)NC(=O)c2ccco2)cc1OC (stereo unspecified),–,inactive: 11.6%
CCCCN(C(=O)c1ccc(Br)o1)C1CCS(=O)(=O)C1 (stereo unspecified),"inconclusive: 5.62 µM [inhibitor, single point]",–
O=C(Nc1ccc(CN2CCOCC2)cc1)c1ccc(-c2ccc(Cl)cc2Cl)o1,"inconclusive: 2.24 µM [inhibitor, full curve]",–
COC(=O)C1=C(c2ccc(OC(F)(F)F)cc2)C[C@@H]2CC[C@H]1N2C(=O)NCc1ccc(F)cc1,"inconclusive: 14.1 µM [inhibitor, single point]",–
CC(=O)c1ccc(NC(=S)NCCCN2CCOCC2)cc1,–,inactive: 5.86%
CC(C)c1ccc2nc3sc(C(=O)N4CCc5ccccc5C4)c(N)c3cc2c1,active: 10 µM,–
COc1ccccc1C(=O)NCCC(=O)Nc1cccc(S(=O)(=O)N2CCCC2)c1,–,inactive: -27.7%
COc1ccc2c(C)cc(SCC(=O)N(C)C3CCS(=O)(=O)C3)nc2c1 (stereo unspecified),"inconclusive: 12.6 µM [inhibitor, partial curve]",–
CCn1c(C(=O)NC2CCC(C)CC2)cc2sccc21 (stereo unspecified),"inconclusive: 22.4 µM [inhibitor, single point]",–
CCCCn1c(SCC(=O)Nc2cc(C(F)(F)F)ccc2Cl)nnc1C(CC)N(C)C (stereo unspecified),"inconclusive: 5.62 µM [inhibitor, full curve, poor fit]",–
CC1=C([N+](=O)[O-])C(c2ccccc2)C2=C(N1)c1ccccc1C2=O (stereo unspecified),"inconclusive: 0.501 µM [inhibitor, full curve, poor fit]",–
C=CCn1c(CSCc2ccccc2)nnc1SCC(=O)N1CCN(c2ccccc2)CC1,"inconclusive: 11.2 µM [inhibitor, single point]",–
N/C(=N\OC(=O)CCCOc1ccccc1)c1ccccn1,–,inactive: 13.1%
O=C(Nc1ccncc1)c1cccc(S(=O)(=O)N2CCc3ccccc32)c1,active: 8.91 µM,–
c1ccc(-c2cc(NCCN3CCCCC3)c3ccccc3n2)cc1,"inconclusive: 4.47 µM [inhibitor, full curve]",–
COc1ccc(N2CCCC2=N)c(OC)c1,–,inactive: 4.58%
Clc1ccc(-n2cc(-c3ccc(Br)cc3)[n+]3c2CCCCC3)cc1,–,inactive: -2.95%
O=C(Nc1ccc(N2CCN(Cc3ccccc3)CC2)cc1)c1ccco1,–,inactive: 1.73%
CCCOc1cccc(/C=N/NC(=O)c2csc(C)c2C)c1,"inconclusive: 2.24 µM [inhibitor, single point]",–
CC1CC(C)CN(C(=O)COC(=O)c2cc([N+](=O)[O-])ccc2N2CCOCC2)C1 (stereo unspecified),"inconclusive: 11.2 µM [inhibitor, partial curve]",–
